Measured values: PubChem BioAssay AID624417 (National Center for Advancing Translational Sciences (NCATS), 2012)
Several values for one entry are separate records, joined by “and”; a condition that tells them apart may be missing. Identical values can stand only once. In all, about 410,000 compounds went through this assay and about 6,400 (1.6%) were called active. Inconclusive results, whose numbers are uncertain, are shown with a selection of clear calls. Calls follow the shape of the dose curve; as a rule, active = well fitted inhibition curve with a large enough effect; inconclusive = small, poorly fitted or top-dose-only effect; inactive = no such curve, though single readings can be large or run the other way. Potencies beside an inconclusive call are fits to weak or partial responses and may not hold up.

molecular target: Glucagon-like peptide 1 receptor (Homo sapiens) (UniProt P43220); assay: qHTS of GLP-1 Receptor Inverse Agonists (Inhibition Mode); settings: HEK293 GLP-1R CRE-luciferase, luminescence, 24 h, GLP-1R form is constitutively active; activity change, negative = inhibition: at 38.3 µM (top of the series) unless noted; also: nearly all actives have a fitted effect of over 55% in size
Chain of UniProt P43220 (P43220 whole entry, looked up): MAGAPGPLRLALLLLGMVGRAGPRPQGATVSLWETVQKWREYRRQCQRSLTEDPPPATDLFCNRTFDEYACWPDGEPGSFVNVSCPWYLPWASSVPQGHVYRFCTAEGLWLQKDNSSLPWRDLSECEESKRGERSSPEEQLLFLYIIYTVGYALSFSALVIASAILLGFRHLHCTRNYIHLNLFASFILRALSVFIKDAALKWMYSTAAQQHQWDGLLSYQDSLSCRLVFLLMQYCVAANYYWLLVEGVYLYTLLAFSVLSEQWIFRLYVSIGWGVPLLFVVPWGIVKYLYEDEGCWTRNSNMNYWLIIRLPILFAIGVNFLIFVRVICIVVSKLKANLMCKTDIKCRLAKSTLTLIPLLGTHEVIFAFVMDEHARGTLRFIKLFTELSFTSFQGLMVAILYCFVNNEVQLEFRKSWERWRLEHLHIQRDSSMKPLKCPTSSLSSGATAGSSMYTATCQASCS
Procedure, shortened: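 Using stably transfected HEK293 (constitutively active GLP-1R, cAMP-luciferase reporter), compounds were incubated 24 hr and luciferase measured by luminescence.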
% is scaled to controls: 0 for no effect and ±100 for the full control effect; potency is read from the fitted curve at half-maximal effect; tags tell the direction and shape of the fitted curve.

SMILES	Potency	activity change, negative = inhibition
COc1ccc(-n2ncc(C(C)NS(=O)(=O)c3cc(C)sc3C)c2C)cc1 (stereo not drawn)	inconclusive: 11.2 µM [inhibitor, partial curve, poor fit]	
CN(C)CCNc1ncnc2c1cnn2-c1cccc(Cl)c1	inconclusive: 12.6 µM [inhibitor, single point]	
CCCCSc1nnc2c(n1)OC(c1ccc(Br)s1)N(C(C)=O)c1ccccc1-2 (stereo not drawn)	inconclusive: 14.1 µM [inhibitor, partial curve, poor fit]	
CCN1/C(=C/C(C)=C/c2sc3ccccc3[n+]2CC)Sc2ccccc21	inconclusive: 2.24 µM [inhibitor, full curve, poor fit] and inconclusive: 10 µM [inhibitor, partial curve, poor fit]	
CCN(c1ccccc1)S(=O)(=O)c1ccc(C(=O)N2CCN(c3ccccc3F)CC2)cc1	inconclusive: 11.2 µM [inhibitor, partial curve, poor fit]	
O=c1c(-c2cc(-c3ccccc3)nc3c2COc2ccc(Cl)cc2-3)coc2ccc(F)cc12		inactive: 10.8%
CN1CCN(C(=O)C23CC4CC(C)(CC(C)(C4)C2)C3)CC1	inconclusive: 7.08 µM [inhibitor, partial curve, poor fit]	
CSc1ccc(CCNC(=O)Cn2ccc3cc(S(=O)(=O)N4CCCCCC4)ccc32)cc1	inconclusive: 7.94 µM [inhibitor, partial curve, poor fit]	
Cc1ccc(-c2csc3ncnc(-n4cnc5ccccc54)c23)cc1	inconclusive: 7.08 µM [inhibitor, partial curve, poor fit]	
Cc1ccc(CN2CCCN(CC(=O)Nc3ccc(C)cc3C)S2(=O)=O)cc1	inconclusive: 11.2 µM [inhibitor, single point]	
Cc1c(C(=O)Nc2ccc(C(=O)O)cc2)nnn1-c1ccccc1	active: 1.78 µM	
CC(=O)c1nc2ccccc2n1Cc1ccccc1	inconclusive: 11.2 µM [inhibitor, single point]	
COc1ccc(C(=O)NCC(=O)N2CCNC(=O)C2)cc1OC		inactive: 2.26%
Cc1ccc(C(C(=O)NC2CCCC2)N(Cc2ccc3c(c2)OCO3)C(=O)Cc2cccs2)cc1 (stereo not drawn)	inconclusive: 10 µM [inhibitor, single point]	
Cc1cn2c(=O)cc(COC(=O)c3cccc(NC(=O)c4ccccc4Cl)c3)nc2s1		inactive: 8.49%
Cn1c(Cl)c(/C=N/OC(=O)C(C)(C)C)c2ccccc21	inconclusive: 28.2 µM [inhibitor, single point]	
COc1ccccc1OCC(=O)Nc1nc2c(s1)CCCC2	inconclusive: 3.98 µM [inhibitor, full curve, poor fit]	
CC(C)OP(=O)(Nc1cccc2ccccc12)OC(C)C	inconclusive: 3.98 µM [inhibitor, partial curve, poor fit]	
Cc1sc2nc(C(C)C)nc(SCC(=O)NCc3ccco3)c2c1C	inconclusive: 28.2 µM [inhibitor, single point]	
CCCOc1ccc(-c2nc(C#N)c(N3CCN(CC)CC3)o2)cc1	inconclusive: 11.2 µM [inhibitor, partial curve, poor fit]	
CCOc1ccccc1C(=O)Nc1ccc(NC(=O)c2ccccc2)cc1		inactive: 13.3%

SMILES	Potency	activity change, negative = inhibition
Cc1nn(C(=O)c2ccc(Cl)cc2)c(C)c1S(=O)(=O)N1CCOCC1		inactive: 11.1%
CNC(=S)N/N=C(\C)c1ccc(Cl)s1	inconclusive: 2.24 µM [inhibitor, full curve, poor fit]	
Cc1cc(C(=O)CSc2nncs2)c(C)n1Cc1ccco1	inconclusive: 3.98 µM [inhibitor, partial curve, poor fit]	
Cc1ccc(C)c(CN2C(=O)c3ccccc3S(=O)(=O)c3ccc(C(=O)NCCCN4CCCC(C)C4)cc32)c1 (stereo not drawn)	inconclusive: 10 µM [inhibitor, single point]	
Nc1nonc1-n1nnc(C(=O)N/N=C/c2ccc(O)cc2)c1CN1CCCCCC1	inconclusive: 31.6 µM [inhibitor, partial curve, poor fit]	
Cc1cccc2c1-c1sc(C(=O)N3CCCCC3)cc1CO2	inconclusive: 28.2 µM [inhibitor, single point]	
Cc1cccc(S(=O)(=O)CC(=O)Nc2nc(-c3ccccc3)cs2)c1	inconclusive: 14.1 µM [inhibitor, single point]	
COC(=O)c1ccc(C(=O)OC)c(NC(=S)N2CCN(c3ccccc3)CC2)c1	inconclusive: 28.2 µM [inhibitor, single point]	
Cc1ccc(C)c(N2CCN(S(=O)(=O)c3ccc4c(c3)NC(=O)CS4)CC2)c1	inconclusive: 28.2 µM [inhibitor, single point]	
COc1ccc(Cl)cc1NC(=O)CN(C)CC(=O)Nc1ccc(Br)cc1		inconclusive: -46.7% [inhibitor] [at 7.66 µM]
O=C1c2ccccc2NC(c2ccc(Br)s2)N1O (stereo not drawn)	inconclusive: 2.51 µM [inhibitor, full curve]	
Cc1ccc(Cc2cnc(NC(=O)c3cccs3)s2)cc1	inconclusive: 12.6 µM [inhibitor, single point]	
CCS(=O)(=O)N1Cc2ccccc2CC1C(=O)N(C)Cc1ccc(OC)cc1OC (stereo not drawn)	inconclusive: 3.55 µM [inhibitor, partial curve, poor fit]	
COc1cccc(-c2ccc(C3=CC(=O)CC(C)(C)C3=O)cc2)c1OC	inconclusive: 12.6 µM [inhibitor, partial curve, poor fit]	
Cc1ccc(C)c(NC(=S)N(CCc2nc3cc(C)c(C)cc3[nH]2)Cc2cccnc2)c1		inactive: -0.896%
COc1cc(OC)c(NC(=O)N2CC3CCCN3c3ccccc32)cc1Cl (stereo not drawn)	inconclusive: 2.82 µM [inhibitor, partial curve, poor fit]	
Cc1cc(C(=O)CN2C(=O)C(=O)N(Cc3ccccc3)C2=O)c(C)n1Cc1ccc(F)cc1	inconclusive: 7.94 µM [inhibitor, partial curve, poor fit]	
O=c1c2c(c(-c3ccccc3)nn1Cc1ccccc1)CCCC2	inconclusive: 28.2 µM [inhibitor, single point]	
CN(C)CCCC1(O)c2ccccc2C=Cc2ccccc21		inactive: -6.28%
COC(=O)[C@@]1(Cc2ccc(F)cc2)[C@H]2c3cc(C(=O)N4CCCC4)n(Cc4ccc(C(F)(F)F)nc4)c3C[C@H]2CN1C(=O)c1ccccc1	inconclusive: 28.2 µM [inhibitor, single point]	
O=C(/C=C/c1cccs1)c1cc(Cl)ccc1O	inconclusive: 10 µM [inhibitor, partial curve, poor fit]	

SMILES	Potency	activity change, negative = inhibition
CN(Cc1cn(Cc2ccc(C(F)(F)F)cc2)nn1)C1CN(Cc2cn(Cc3ccc(C(F)(F)F)cc3)nn2)S(=O)(=O)C1 (stereo not drawn)	inconclusive: 28.2 µM [inhibitor, single point]	
Cc1cc(/C=N/NC(=O)c2cccc(F)c2)c(C)n1-c1ccccc1	inconclusive: 8.91 µM [inhibitor, partial curve]	
CC(C)c1ccc(NC(=O)C(C)N(c2ccccc2)S(C)(=O)=O)cc1 (stereo not drawn)	inconclusive: 28.2 µM [inhibitor, single point]	
COc1cc2c(cc1O)C(Cc1ccc(O)cc1)NCC2 (stereo not drawn)		inactive: 13.6%
Cc1ccc(C(c2cccc(Br)c2)c2c(C)[nH]c3ccccc23)s1 (stereo not drawn)	active: 10 µM	
Cc1cccc(OCC(=O)N(Cc2ccc(C(C)(C)C)cc2)Cc2ccco2)c1	inconclusive: 10 µM [inhibitor, partial curve, poor fit]	
COc1cc(OC)c(N(C)S(=O)(=O)c2cccc(C(=O)OCC(=O)N(C)Cc3ccccc3)c2)cc1Cl	inconclusive: 28.2 µM [inhibitor, single point]	
Cc1nn(CC(=O)NCCC2=CCCCC2)c(C)c1[N+](=O)[O-]		inactive: 2.66%
O=C(NOCc1ccccc1)c1ccccc1	inconclusive: 8.91 µM [inhibitor, partial curve]	
Nc1ccc(O)cc1C(=O)OCC(=O)C12CC3CC(CC(C3)C1)C2		inactive: -10.9%
CCCSc1nsc(NC(=O)C(c2ccccc2)c2ccccc2)n1	active: 3.16 µM	
COc1ccc(OCC(=O)NCC(c2ccc(OC)cc2)N2CCCCC2)cc1 (stereo not drawn)	inactive	
COc1ccc(C(=O)OCC(=O)N(Cc2ccccc2)Cc2ccccc2)c(O)c1	inconclusive: 10 µM [inhibitor, partial curve, poor fit]	
CC(=O)N1c2ccccc2S(=O)(=O)c2c1ccc1ccccc21		inactive: -12.3%
CCCCCCCCN1[C@@H](CC(=O)OCC)c2cc(C(F)(F)F)ccc2S1(=O)=O	inconclusive: 11.2 µM [inhibitor, single point]	
C[C@H]1CN([C@@H](C)CO)C(=O)CCCn2nncc2CO[C@@H]1CN(C)Cc1ccc2c(c1)OCCO2		inactive: -3.1%
Cc1ccc(-c2cc(C(=O)Nc3cccnc3)c3ccccc3n2)s1	inconclusive: 3.55 µM [inhibitor, partial curve, poor fit]	
Cc1cccc2sc(N(CCCN(C)C)C(=O)c3ccc4ncsc4c3)nc12	inconclusive: 12.6 µM [inhibitor, partial curve, poor fit]	
O=C(Cc1ccccc1)Nc1ccc2oc(=O)ccc2c1		inactive: -3.75% [at 7.66 µM]
COc1ccc(C(NCC(=O)Nc2c(C)cccc2C)c2ccccc2)cc1 (stereo not drawn)	inconclusive: 11.2 µM [inhibitor, partial curve, poor fit]	
CCN(CC)c1nc2ccccc2nc1C(=O)Nc1cc(OC)c(OC)c(OC)c1	inconclusive: 11.2 µM [inhibitor, partial curve]	
